B1: scFv8870-IgG-scFv8092 Homodimer (bispecific antibody)
chain: EVQLVESGGGVVRPGGSLRLSCAASGFKFDVYGMSWVRQLPGKGLEWVSGISWTGGSSGYADSVKGRFTISRDNGKKSLYLQMNSLRAEDTALYYCTREEDYWGQGTLVTVSSGGGGSGGGGSGGGGS[about 100 residues not spelt out]LTFGGGTKVEIKGGGGSGGGGSGGGGS[human IgG4 Fc with S228P (EU numbers) not spelt out]GGGGSGGGGSGGGGSQVQLQESGPGLVKPSETLSLTCTVSGGSISSYYWSWIRQPPGKGLDWIGHIYYSGTTYYNPSLKSRVSISLDTSKNQFSLKLSSVTAADTAVYYCARHLRGYSSGREFDYWGQGTLVTVSSGGGGSGGGGSGGGGSDIQMTQSPSSLSASVGGRVSLTCRASQSIFSYLNWYQQKPGKAPKLLIYAASNLQSGVPSRFSGSGSGTDFTLTISSLQPEDFATYSCQQSYNIPYTFGQGTKLEIK
B2: scFv8900-IgG-scFv8092 Homodimer (bispecific antibody)
chain: QVQLVESGGGVVQPGRSLRLSCVASGFTFSSYGMHWVRQAPGKGLEWVAVISFDGSNKYYADSVKGRFTISRDNSKNTLYLQMNSLRPADTAVYYCAKDRSNYYYFGMDVWGQGTTVTVSSGGGGSGGGGSGGGGSDIVMTQTPLSLPVTPGEPASISCRSSQSLLDSDDGNTYLDWYLQKPGQSPQLLIYTLSYRASGVPDRFSGSGSGTDFTLKISRVEAEDVGVYYCMQRIEFPLTFGGGTKVEIKGGGGSGGGGSGGGGS[human IgG4 Fc with S228P (EU numbers) not spelt out]GGGGSGGGGSGGGGSQVQLQESGPGLVKPSETLSLTCTVSGGSISSYYWSWIRQPPGKGLDWIGHIYYSGTTYYNPSLKSRVSISLDTSKNQFSLKLSSVTAADTAVYYCARHLRGYSSGREFDYWGQGTLVTVSSGGGGSGGGGSGGGGSDIQMTQSPSSLSASVGGRVSLTCRASQSIFSYLNWYQQKPGKAPKLLIYAASNLQSGVPSRFSGSGSGTDFTLTISSLQPEDFATYSCQQSYNIPYTFGQGTKLEIK
B3: Fusion 1 (Heterodimer) (Fc fusion)
chain 1: QVQLQESGPGLVKPSETLSLTCTVSGGSISSYYWSWIRQPPGKGLDWIGHIYYSGTTYYNPSLKSRVSISLDTSKNQFSLKLSSVTAADTAVYYCARHLRGYSSGREFDYWGQGTLVTVSSGGGGSGGGGSGGGGSDIQMTQSPSSLSASVGGRVSLTCRASQSIFSYLNWYQQKPGKAPKLLIYAASNLQSGVPSRFSGSGSGTDFTLTISSLQPEDFATYSCQQSYNIPYTFGQGTKLEIKGGGGSGGGGSGGGGS[human IgG4 Fc with S228P (EU numbers) not spelt out]
chain 2: HPIPDSSPLLQFGGQVRQRYLYTDDAQQTEAHLEIREDGTVGGAADQSPESLLQLKALKPGVIQILGVKTSRFLCQRPDGALYGSLHFDPEACSFRELLLEDGYNVYQSEAHGLPLHLPGNKSPHRDPAPRGPARFLPLPGLPPAPPEPPGILAPQPPDVGSSDPLSGGGGSGGGGSGGGGSESKYGPPCPPCPAPEFLGGPSVFLFPPKPKDTLMISRTPEVTCVVVDVSQEDPEVQFNWYVDGVEVHNAKTKPREEQFNSTYRVVSVLTVLHQDWLNGKEYKCKVSNKGLPSSIEKTISKAKGQPREPQVYTLPPSQEEMTKNQVSLTCLVKGFYPSDIAVEWESNGQPENNYKTTPPVLDSDGSFFLYSRLTVDKSRWQEGNVFSCSVMHEALHNRFTQKSLSLSPGK
B4: Fusion 2 (Homodimer) (Fc fusion)
chain: EVQLVESGGGVVRPGGSLRLSCAASGFKFDVYGMSWVRQLPGKGLEWVSGISWTGGSSGYADSVKGRFTISRDNGKKSLYLQMNSLRAEDTALYYCTREEDYWGQGTLVTVSSGGGGSGGGGSGGGGS[about 100 residues not spelt out]LTFGGGTKVEIKGGGGSGGGGSGGGGS[human IgG4 Fc with S228P (EU numbers) not spelt out]GGGGSGGGGSGGGGSLLQFGGQVRQRYLYTDDAQQTEAHLEIREDGTVGGAADQSPESLLQLKALKPGVIQILGVKTSRFLCQRPDGALYGSLHFDPEACSFRELLLEDGYNVYQSEAHGLPLHLPGNKSPHRDPAPRGPARFLPLPGLPPAPPEPPGILAPQPPDVGSSDPLSMVGPSQGRSPSYAS
B5: Fusion 4 (Homodimer) (Fc fusion)
chain: HPIPDSSPGGGGSGGGGSGGGGSGGGGS[human IgG1 Fc not spelt out]GGGGSGGGGSGGGGSGGGGSPGLPPAPPEPPGILAPQPPDVGSSDPLSMVGPSQGRSPSYAS
B6: Fusion 5 (Homodimer) (Fc fusion)
chain: HPIPDSSPLLQFGGQVRGGGGSGGGGSGGGGSGGGGS[human IgG1 Fc not spelt out]GGGGSGGGGSGGGGSGGGGSPGLPPAPPEPPGILAPQPPDVGSSDPLSMVGPSQGRSPSYAS
B7: Control scFv8900-hIgG4mutFc (Fc fusion)
chain: QVQLVESGGGVVQPGRSLRLSCVASGFTFSSYGMHWVRQAPGKGLEWVAVISFDGSNKYYADSVKGRFTISRDNSKNTLYLQMNSLRPADTAVYYCAKDRSNYYYFGMDVWGQGTTVTVSSGGGGSGGGGSGGGGSDIVMTQTPLSLPVTPGEPASISCRSSQSLLDSDDGNTYLDWYLQKPGQSPQLLIYTLSYRASGVPDRFSGSGSGTDFTLKISRVEAEDVGVYYCMQRIEFPLTFGGGTKVEIKGGGGSGGGGSGGGGS[human IgG4 Fc with S228P (EU numbers) not spelt out]
B8: Control hIgG4mutFc-hFGF21(L37-S209) (Fc fusion)
chain: [human IgG4 Fc with S228P (EU numbers) not spelt out]GGGGSGGGGSGGGGSLLQFGGQVRQRYLYTDDAQQTEAHLEIREDGTVGGAADQSPESLLQLKALKPGVIQILGVKTSRFLCQRPDGALYGSLHFDPEACSFRELLLEDGYNVYQSEAHGLPLHLPGNKSPHRDPAPRGPARFLPLPGLPPAPPEPPGILAPQPPDVGSSDPLSMVGPSQGRSPSYAS

What follows are binders tested against T1, cell-surface human FGFR1c (amino acids 1-731 of NP_075594) with cell-surface human KLB on … (human, UniProt P11362 22-822) (assay: cell-based or functional assay).
T1 sequence (P11362 22-822, chain 1 of 2): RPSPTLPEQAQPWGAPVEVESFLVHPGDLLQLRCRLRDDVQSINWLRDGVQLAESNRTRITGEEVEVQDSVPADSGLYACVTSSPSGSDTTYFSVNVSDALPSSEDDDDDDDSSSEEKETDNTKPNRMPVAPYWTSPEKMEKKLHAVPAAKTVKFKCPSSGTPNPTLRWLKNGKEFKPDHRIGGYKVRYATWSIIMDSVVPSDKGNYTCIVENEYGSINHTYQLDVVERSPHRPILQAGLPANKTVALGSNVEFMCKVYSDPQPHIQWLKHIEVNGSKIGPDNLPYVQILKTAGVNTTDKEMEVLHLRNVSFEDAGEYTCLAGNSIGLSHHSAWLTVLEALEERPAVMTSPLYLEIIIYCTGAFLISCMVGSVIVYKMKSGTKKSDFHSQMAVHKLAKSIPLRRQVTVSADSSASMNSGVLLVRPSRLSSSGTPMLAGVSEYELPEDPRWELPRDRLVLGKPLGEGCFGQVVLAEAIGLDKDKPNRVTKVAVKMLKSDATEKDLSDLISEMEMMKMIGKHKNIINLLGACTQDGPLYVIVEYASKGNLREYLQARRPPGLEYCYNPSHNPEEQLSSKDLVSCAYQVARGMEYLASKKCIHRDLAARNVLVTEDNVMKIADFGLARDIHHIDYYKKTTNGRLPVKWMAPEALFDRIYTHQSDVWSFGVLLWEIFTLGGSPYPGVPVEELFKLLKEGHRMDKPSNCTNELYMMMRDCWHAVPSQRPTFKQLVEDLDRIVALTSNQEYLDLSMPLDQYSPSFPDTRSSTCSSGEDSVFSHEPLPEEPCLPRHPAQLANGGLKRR
T1 sequence (chain, as listed by the source, chain 2 of 2): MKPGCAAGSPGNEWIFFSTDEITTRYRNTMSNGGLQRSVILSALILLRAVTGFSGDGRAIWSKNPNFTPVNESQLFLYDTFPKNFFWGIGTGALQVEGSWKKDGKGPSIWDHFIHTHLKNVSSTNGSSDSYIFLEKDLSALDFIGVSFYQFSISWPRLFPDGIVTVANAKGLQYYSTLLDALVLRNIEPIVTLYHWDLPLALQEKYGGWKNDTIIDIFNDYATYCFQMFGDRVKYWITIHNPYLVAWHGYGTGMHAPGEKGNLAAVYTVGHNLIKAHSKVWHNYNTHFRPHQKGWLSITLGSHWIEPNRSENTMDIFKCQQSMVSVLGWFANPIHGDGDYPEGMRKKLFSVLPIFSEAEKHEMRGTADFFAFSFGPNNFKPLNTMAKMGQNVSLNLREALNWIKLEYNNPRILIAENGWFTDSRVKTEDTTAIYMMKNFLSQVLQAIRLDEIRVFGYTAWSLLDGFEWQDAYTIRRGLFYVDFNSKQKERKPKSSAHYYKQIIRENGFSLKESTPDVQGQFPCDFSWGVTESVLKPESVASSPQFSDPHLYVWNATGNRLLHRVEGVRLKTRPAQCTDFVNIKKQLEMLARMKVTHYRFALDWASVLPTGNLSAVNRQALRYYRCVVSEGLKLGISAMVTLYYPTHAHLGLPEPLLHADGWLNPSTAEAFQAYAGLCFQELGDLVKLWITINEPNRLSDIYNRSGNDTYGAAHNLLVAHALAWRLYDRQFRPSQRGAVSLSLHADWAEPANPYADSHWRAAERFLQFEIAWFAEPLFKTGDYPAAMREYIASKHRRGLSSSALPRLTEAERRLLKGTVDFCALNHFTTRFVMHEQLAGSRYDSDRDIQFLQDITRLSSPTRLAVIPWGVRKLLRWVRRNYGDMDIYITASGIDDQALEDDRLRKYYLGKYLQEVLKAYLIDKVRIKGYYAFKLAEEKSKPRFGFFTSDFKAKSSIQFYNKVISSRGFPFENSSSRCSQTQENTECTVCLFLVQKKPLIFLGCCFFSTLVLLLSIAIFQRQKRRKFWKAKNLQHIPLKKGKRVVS

Binder	% Activation [%]	EC50, SRE-luc activation [nM]
B1	5.3	38
B2	7.7	0.21
B3	5.2	1.2
B4	21.4	> 10
B5	1.3	22
B6	1.4	15

Target: T1, cell-surface human FGFR1c (amino acids …)
Assay: cell-based or functional assay
Remark: another data set of the same source

Binder	% Activation [%]	EC50, SRE-luc activation [nM]
B7	2.4	58
B8	22.8	16
